Measurements: PubChem BioAssay AID651820 (National Center for Advancing Translational Sciences (NCATS), 2012)
About 12,000 (3.5%) of roughly 340,000 compounds were called active. This list was built around the results that the source calls inconclusive (neither active nor inactive); the mix of calls is not that of the screen. Calls follow the shape of the dose curve; as a rule, active = well fitted inhibition curve with a large enough effect; inconclusive = small, poorly fitted or top-dose-only effect, or another doubt; inactive = no such curve, though single readings can be large or run the other way. Potencies of inconclusive entries are left out as doubtful fits.

assay: qHTS Assay for Inhibitors of Hepatitis C Virus (HCV); conditions: Huh7.5.1 HCVcc-Cre (HCVcc is cell-culture hepatitis C virus) infection, luciferase reporter, 44 h; activity change, negative = inhibition: at 41.8 µM (top of the series) unless noted
Outline: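 1,000 cells/well; 4 h culture; + compound; + HCVcc-Cre (~0.5 moi); 44 h; luciferase substrate, RT 15 min; read 15 sec.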
% is scaled to controls: 0 for no effect and ±100 for the full control effect; potency is read from the fitted curve at half-maximal effect; tags tell the direction and shape of the fitted curve.

| SMILES | activity change, negative = inhibition | Potency |
| --- | --- | --- |
| O=C(NC1CCCCC1)C1CC(=O)N(CCc2ccc(F)cc2)C1 (centres undefined) | inactive: 0.543% | – |
| Cc1ccccc1OCCC(=O)OCC(=O)N1CCN(S(=O)(=O)c2ccc(Cl)cc2)CC1 | – | inconclusive [inhibitor, single point] |
| COC(=O)CCN1CCc2cc(N=Nc3ccc([N+](=O)[O-])cc3)ccc21 | – | inconclusive [inhibitor, single point] |
| O=C(OCC(=O)N1CCOCC1)c1cc(F)c(F)cc1Cl | inactive: 9.61% | – |
| Cn1cccc1/C=C1\SC(=O)N(c2ccccc2)C1=O | – | inconclusive [inhibitor, partial curve] |
| O=C1CC(c2cccc([N+](=O)[O-])c2)c2ccc3ccccc3c2N1 (centres undefined) | – | inconclusive [inhibitor, partial curve] |
| c1ccc(-c2ccc(-c3cnc4n3CCCCC4)cc2)cc1 | – | inconclusive [inhibitor, single point] |
| COc1ccc(C(C)=O)cc1CN1C(=O)NC2(CCCCC2C)C1=O (centres undefined) | – | inconclusive [inhibitor, partial curve] |
| CCOc1ccc(N(CC(=O)Nc2cccc(N(C)S(C)(=O)=O)c2)S(=O)(=O)c2ccccc2)cc1 | – | inconclusive [inhibitor, partial curve] |
| CC12CCC(C(=O)NCc3ccc(F)cc3)(OC1=O)C2(C)C (centres undefined) | inactive: 12.7% | – |
| COC(=O)c1[nH]c2ccc(Cl)cc2c1NC(=O)CCN1CCN(C2CCCCC2)CC1 | – | inconclusive [inhibitor, single point] |
| Cc1cccc2sc(N(CCCN(C)C)C(=O)c3cc4ccccc4oc3=O)nc12 | – | inconclusive [inhibitor, partial curve] |
| COc1cc(/C=N/NC(=O)c2ccccn2)ccc1OC(=O)c1ccccc1Br | – | inconclusive [inhibitor, partial curve] |
| Oc1ccc(-[n+]2c(-c3ccccc3)cc(-c3ccccc3)cc2-c2ccccc2)cc1 | – | active: 8.91 µM |
| Cc1cc(OCC(=O)Nc2ccc(S(=O)(=O)N3CCN(C)CC3)cc2)cc(C)c1Cl | – | active: 11.2 µM |
| O=C(Nc1cccc(S(=O)(=O)N2CCOCC2)c1)C1COc2ccccc2O1 (centres undefined) | – | inconclusive [inhibitor, partial curve] |
| c1cc2c(cc1Oc1nc(N3CCOCC3)nc(N3CCOCC3)n1)OCO2 | – | inconclusive [inhibitor, single point] |
| Cc1ccc(OCCCC(=O)Nc2cc(S(=O)(=O)N3CCOCC3)ccc2N2CCOCC2)cc1 | inactive: -15.2% | – |
| Cc1cc(=O)oc2cc(OCc3ccc(C(=O)OCC(=O)Nc4ccccc4OC(F)F)cc3)ccc12 | – | inconclusive [inhibitor, full curve, poor fit] |
